# Measurements from the supplement of paper PMC3334620.
# The full ranking holds about 33,000 sequences; the median of “E-score (-0.5 to 0.5)” is about -0.012, and the highest 2% start at about 0.27. The list shows a part of the results.
# Molecular target: T1, Vhr1 (UniProt P40522)
# T1 sequence: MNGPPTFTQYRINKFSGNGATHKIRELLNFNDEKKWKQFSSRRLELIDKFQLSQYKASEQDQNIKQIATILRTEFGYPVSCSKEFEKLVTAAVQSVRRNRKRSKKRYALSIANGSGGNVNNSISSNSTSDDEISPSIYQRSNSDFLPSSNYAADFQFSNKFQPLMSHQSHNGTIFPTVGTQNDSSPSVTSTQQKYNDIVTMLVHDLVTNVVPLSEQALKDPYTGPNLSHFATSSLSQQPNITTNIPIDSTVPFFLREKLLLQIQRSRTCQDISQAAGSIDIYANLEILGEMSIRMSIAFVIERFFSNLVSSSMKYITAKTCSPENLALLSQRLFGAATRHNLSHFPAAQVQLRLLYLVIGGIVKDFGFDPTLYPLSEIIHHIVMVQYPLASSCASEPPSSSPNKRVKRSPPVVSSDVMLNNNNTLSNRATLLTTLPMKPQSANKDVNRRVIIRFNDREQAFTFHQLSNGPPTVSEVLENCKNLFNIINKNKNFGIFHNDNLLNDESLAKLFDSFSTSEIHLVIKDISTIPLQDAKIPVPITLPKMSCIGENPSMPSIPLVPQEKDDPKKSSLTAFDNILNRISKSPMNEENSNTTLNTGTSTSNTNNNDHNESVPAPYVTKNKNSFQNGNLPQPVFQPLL
# Experiment: PBM E-score (8-mer binding enrichment) (E-score (-0.5 to 0.5)); higher = stronger / more preferred TF binding; most listed sequences are background and not binding sites
# Conditions: protein concentration: 200 nM; construct: GST-full length
# Outline: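 E-scores (a modified Wilcoxon-Mann-Whitney statistic) were assigned by the Universal PBM Analysis Suite to every ungapped eight-base word pooled with its reverse complement. The input came from universal all-10-mer Agilent arrays made double-stranded by primer extension and probed with GST-tagged yeast transcription factors at about 100-200 nM. Fluorescent anti-GST detected bound protein, and masliner normalised the scans.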
row,Sequence,PBM E-score
1,GTTGTGGA,-0.00265
2,CGAAAAAC,-0.0634
3,GGATGCAA,-0.176
4,AAACGTCG,-0.159
5,AATTATGT,0.0928
6,GAACTGGC,-0.125
7,CCGAATCG,0.101
8,AGACCACA,0.268
9,AGAAGAGC,-0.169
10,ACTACGCG,0.0604
11,ATAGGGGC,-0.0513
12,ACCGTTCC,0.0141
13,CCGTGAGC,-0.279
14,AGAGACGA,-0.048
15,GCAGTGGC,0.0117
16,CACCAGTA,0.0813
17,ATTATAAA,-0.136
18,CCTAGCGA,-0.215
19,CGGTTAAA,-0.149
20,ACTGCATC,0.211
21,GAGGTTGA,-0.131
22,TTGAGCAA,-0.0517
23,GCAGAGAC,-0.143
24,GAGTACGC,-0.118
25,CAGACCAC,0.129

row,Sequence,PBM E-score
1,TACCGAGA,-0.0376
2,AAGCCCCG,-0.0583
3,AATTTGAC,-0.0801
4,GACTCAGA,0.308
5,ACGATAAC,0.144
6,ACTACACT,0.211
7,ATCGCTCG,0.0732
8,ACTGGAAC,-0.0796
9,TTTATAAA,-0.0811
10,AGTCGATG,0.149
11,AAGCCAGT,-0.12
12,ATGAGGTG,-0.0279
13,TGGACACA,0.0645
14,GCAGGGTA,-0.0897
15,AATCCCTG,0.0135
16,AGCGTTGA,-0.0365
17,GACGGTGC,-0.0439
18,GTGGCCAC,0.185
19,CGATGATC,0.17
20,ATGTCACG,0.125
21,ACTCGCGG,0.209
22,AGGGAGGC,-0.122
23,AAGACGAG,-0.124
24,GAGGCAAA,0.0323
25,CTTTTCGA,-0.183

row,Sequence,PBM E-score
1,GTATCGAA,0.0589
2,CGAACAAA,0.0402
3,TATTCGCA,0.0845
4,CCATATGA,0.176
5,ATAGAGGC,-0.207
6,ATTCAGGA,0.102
7,CTTCACGA,-0.205
8,AGTATCGC,0.0154
9,AAAGAACT,-0.173
10,GCATGGTA,0.047
11,GCACGCCA,-0.138
12,ATTGTTCG,0.0472
13,CAACCGAG,0.178
14,GCTCGAAA,-0.0692
15,GCGGCGCC,0.174
16,TCTCTAAA,-0.242
17,GACCTCAA,-0.0204
18,CAGCGAAG,0.00147
19,CCCACCGC,0.14
20,ATCTCCTG,0.0894
21,CTGGACAA,-0.146
22,CAACCCAG,0.0684
23,ACCACCGA,0.0503
24,CGACAAAA,-0.0623
25,CCTCCTGC,-0.139

row,Sequence,PBM E-score
1,AACCTTGG,-0.274
2,CGCATTAA,-0.0276
3,CCCTCACA,-0.0302
4,ACCATCTC,0.173
5,AGTGCGAT,0.125
6,TCTGCCCA,-0.179
7,GGTTTTGA,-0.0155
8,GGTTCAGA,-0.0858
9,AGAGGACC,-0.0963
10,CTTTTGGA,-0.219
11,CCGATACC,-0.088
12,TCCAGAGA,0.0238
13,TCAATAAA,-0.173
14,CAATGGGG,-0.0602
15,CTGGGGGA,-0.114
16,CATAGTTC,0.147
17,CGAACACC,0.0727
18,AGGAGGAC,-0.208
19,CCGCTCTA,-0.0369
20,ATTGGGCC,-0.049
21,CCCAGCGG,-0.0619
22,CGGCATTA,0.0768
23,GCATGGCC,-0.0804
24,GCCTTCCC,-0.24
25,TCGTACGA,-0.0873

row,Sequence,PBM E-score
1,ATATAATC,-0.128
2,AACCACGG,0.101
3,ACTAAGTC,0.138
4,TATAAAGA,-0.214
5,CCCGGCCC,0.0496
6,ACTATCGC,0.0315
7,CTTCTTAC,-0.221
8,AAAGCTGT,-0.103
9,GCCAATAA,0.0719
10,CAGCCCAC,-0.0271
11,ACTCTCGA,0.00975
12,AGCTAGGG,-0.0759
13,ACAGTCCG,0.00215
14,ACCCTATG,0.136
15,CGTATTAA,-0.0144
16,GCGGGGCC,0.101
17,AACAAAAT,-0.0572
18,CAGGCTCC,0.0755
19,AATGAACG,-0.0965
20,AATACGAG,-0.00968
21,AACCTACC,0.105
22,AACCATCC,0.229
23,CTCATCAA,-0.0861
24,CGATAGCA,-0.00614
25,ATGATCTA,0.176

row,Sequence,PBM E-score
1,AATCATCC,0.405
2,AAACCGTA,-0.165
3,ATTCGCTA,-0.143
4,AGGGCGCC,-0.0248
5,CATACGGC,0.143
6,GATATAGA,0.0295
7,ACCAGTAC,0.0612
8,ACTAGGCT,0.154
9,CACGCACC,-0.035
10,AGGCTAGA,-0.154
11,CCTTCTAG,-0.342
12,CTGTCTGC,-0.214
13,CTCAACCA,0.059
14,CGACCCCA,0.079
15,ACGGTTGG,-0.0958
16,AGGTCACT,-0.135
17,ACGGTAGG,-0.0389
18,AGCGAACC,0.00911
19,CTGGGTAC,0.196
20,AGTGGAAC,-0.0701
21,CAGGCTTA,-0.118
22,TCCGTAGA,-0.253
23,TAAACCTA,0.0156
24,CGGTGCTC,0.135
25,ATAATACG,0.0457

row,Sequence,PBM E-score
1,AACGGAAA,-0.17
2,CAGGCCCG,-0.0654
3,CACTCACG,0.238
4,ACATACTG,0.236
5,CTGATACC,-0.0358
6,AGAAATCG,-0.209
7,GACTCATA,0.388
8,CGGCGCTC,-0.173
9,TCGCGTAA,0.0342
10,AGTCTCGA,0.0864
11,CTTCTCCC,-0.159
12,GTCCAGCA,-0.0682
13,AGTTAAGC,-0.166
14,ACTAACAC,0.246
15,AAGTCTCA,-0.14
16,CTAATGAA,0.0817
17,AAAGATAG,-0.188
18,AACGCATC,-0.124
19,CCTAATCG,0.0221
20,CTTTTGAA,-0.293
21,CTTGGAGA,-0.0158
22,CGCGAAAA,-0.064
